Experimental data reported in article PMC4336329 (PLoS ONE, 2015).
Screen size: about 310,000 compounds; about 2,200 (0.71%) showed an effect of 50% or more. Effects have a minus sign here. The list shows a part of the results.

biological target: human ether-à-go-go-related gene (hERG) potassium channel (human, UniProt Q12809); test: primary screen, population patch clamp on CHO cells stably expressing hERG
Sequence (Q12809 whole entry, looked up): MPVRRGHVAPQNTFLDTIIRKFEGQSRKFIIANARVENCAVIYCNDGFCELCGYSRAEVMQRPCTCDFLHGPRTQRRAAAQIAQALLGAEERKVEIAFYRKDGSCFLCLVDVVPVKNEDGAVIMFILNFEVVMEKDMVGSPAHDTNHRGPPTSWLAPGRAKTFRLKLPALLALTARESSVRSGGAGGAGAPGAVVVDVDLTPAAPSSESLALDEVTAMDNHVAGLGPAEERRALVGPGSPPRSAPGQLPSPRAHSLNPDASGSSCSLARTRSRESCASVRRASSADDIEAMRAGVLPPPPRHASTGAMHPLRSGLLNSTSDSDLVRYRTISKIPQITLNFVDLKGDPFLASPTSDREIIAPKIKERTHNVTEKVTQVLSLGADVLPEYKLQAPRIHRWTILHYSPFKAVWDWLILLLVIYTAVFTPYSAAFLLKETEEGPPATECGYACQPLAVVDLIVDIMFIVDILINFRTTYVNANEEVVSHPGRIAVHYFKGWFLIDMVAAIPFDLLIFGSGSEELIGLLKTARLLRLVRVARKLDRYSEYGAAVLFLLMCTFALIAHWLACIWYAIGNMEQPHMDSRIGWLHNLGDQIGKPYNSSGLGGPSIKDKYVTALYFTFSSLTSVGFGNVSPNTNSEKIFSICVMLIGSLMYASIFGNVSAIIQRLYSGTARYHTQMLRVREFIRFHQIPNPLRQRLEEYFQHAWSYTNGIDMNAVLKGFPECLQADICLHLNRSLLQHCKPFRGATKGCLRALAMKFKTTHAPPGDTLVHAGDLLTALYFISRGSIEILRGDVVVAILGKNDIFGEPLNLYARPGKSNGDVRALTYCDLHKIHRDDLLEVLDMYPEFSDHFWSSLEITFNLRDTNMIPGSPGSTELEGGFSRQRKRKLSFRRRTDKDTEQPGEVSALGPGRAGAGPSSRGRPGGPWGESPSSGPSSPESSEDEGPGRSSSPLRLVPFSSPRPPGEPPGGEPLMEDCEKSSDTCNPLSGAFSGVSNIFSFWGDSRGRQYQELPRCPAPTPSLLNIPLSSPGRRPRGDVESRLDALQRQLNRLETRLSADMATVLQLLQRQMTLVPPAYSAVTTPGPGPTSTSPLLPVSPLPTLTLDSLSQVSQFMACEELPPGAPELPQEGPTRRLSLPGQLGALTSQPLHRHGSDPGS

Row | Structure (SMILES) | hERG current change (%, negative = inhibition) at 1uM
1 | Fc1ccc(-n2cc(CNCCc3ccncc3)c(-c3ccccc3Cl)n2)cc1 | -3.18%
2 | C=CCNC(=O)NC(=O)COC(=O)COc1ccc(Br)cc1F | 7.39%
3 | CCNC(=O)Cn1cc(C#N)c2ccccc21 | 0.917%
4 | COc1ccc(-n2nnc3c(=O)n(Cc4cccc(C)c4)cnc32)cc1 | -12.9%
5 | O=C(NC1(C(F)(F)F)N=C(c2ccccc2)NC1=O)c1ccc(Cl)cc1Cl (stereo not shown) | -10.2%
6 | CCn1c(=O)c2ccccc2n(Cc2cccc([N+](=O)[O-])c2)c1=O | 16.4%
7 | CCOC(=O)C1=C(C)NC(=O)NC1c1ccc2c(c1)OCCO2 (stereo not shown) | 11.1%
8 | Cc1ccc(S(=O)(=O)CCC(=O)NCCc2ccc(Cl)cc2)cc1 | 5.75%
9 | COc1cccc(CN(C(=O)CN2C(=O)c3ccccc3S2(=O)=O)C(C(=O)NCC2CCCO2)c2ccco2)c1 (stereo not shown) | -50.1%
10 | CCOC(=O)c1cc2c(nc1NC(=S)Nc1ccccc1)CC(C)(C)OC2 | 6.85%
11 | O=C1N(Cc2cccnc2)C[C@@H]2C[C@@H](c3cccc(Oc4ccccc4)c3)N3CCC[C@@]123 | -4.79%
12 | Cc1cc(C)n2nc(SCC#N)nc2n1 | -7.27%
13 | O=C(Cn1cc2c(n1)CCCC2)NCCCN1CCCC1 | 8.91%
14 | Cc1nn(CCO)c2c1C(=O)CCC2 | 9.11%
15 | Cc1nn2c(N3CCN(CCO)CC3)c3c(nc2c1-c1ccccc1)CCCC3 | 5.22%
16 | COc1cnn(-c2ccc(C)cc2)c(=O)c1Br | 10.8%
17 | O=C(COC(=O)/C=C/c1ccc(Br)o1)NC1CCCCC1 | 7.52%
18 | COc1cccc(NC(=O)/C=C/c2ccc(S(=O)(=O)N3CCOCC3)cc2)c1 | 8.02%
19 | O=C(CN(C(=O)CNS(=O)(=O)c1ccccc1)c1ccc2c(c1)OCCO2)NCc1ccco1 | 3.62%
20 | COc1cccc(/C=N/NC(=O)CCc2c(C)n[nH]c2C)c1O | 4.94%
21 | CC(NC(=O)c1ccc(N)cc1)c1ccccc1 (stereo not shown) | 4.39%
22 | COc1ccc(CCNC(=O)CCCn2ncn3c(cc4occc43)c2=O)c(OC)c1 | 10.5%

Row | Structure (SMILES) | hERG current change (%, negative = inhibition) at 1uM
23 | CC(C)NC(=O)COC(=O)c1cc(=O)[nH]c2ccccc12 | 9.93%
24 | CC(=O)c1cccc(NC(=O)CCc2nnc3ccc(NCc4ccco4)nn23)c1 | 17.4%
25 | O=C(CSCc1ccc(Cl)cc1)NCCSCc1ccco1 | 7.86%
26 | Cc1cccc(OCC(=O)N/N=C/c2cc([N+](=O)[O-])ccc2N2CCOCC2)c1 | -1.6%
27 | Cc1c(C(=O)N2CCCCC2)sc(NC(=O)C23CC4CC(CC(C4)C2)C3)c1C#N | 5.06%
28 | Cc1cc(C)cc(NC(=O)COC(=O)CN=C2NS(=O)(=O)c3ccccc32)c1 | 14.4%
29 | Cc1c(C(=O)N2CCCCC2)c(S(=O)(=O)N2CCc3ccccc32)c(C)n1C | 14.7%
30 | CC1(C)CC(=O)C(CC(=O)Nc2ccc(S(N)(=O)=O)cc2)=C(O)C1 | 5.31%
31 | CN(C)C(=O)N1CCN(C(=O)N(C)C)CC1 | 12.3%
32 | CC(C)(C)c1cc2ncnc(N3CCCCC3)c2s1 | 14.6%
33 | COc1ccc2ccccc2c1C1CC(=O)N2CN(Cc3ccco3)CSC2=C1C#N (stereo not shown) | 14.1%
34 | Cc1ccc(S(=O)(=O)N(C)CC(=O)OCC(=O)N2CC(=O)Nc3ccccc32)cc1 | 7.82%
35 | COc1ccc(C(=O)C2CCCN(Cc3c[nH]c4ccccc34)C2)c(OC)c1 (stereo not shown) | -58.8%
36 | C=CCn1c(SCC(=O)c2ccc(O)c(O)c2)nnc1-c1cccc(C)c1 | 3.5%
37 | CCOn1c(=O)c(-c2ccc(Cl)cc2)[n+]([O-])c2ccccc21 | 14.2%
38 | OCC1CCN(Cc2nc(Cc3ccccc3Cl)no2)CC1 | 12.1%
39 | COc1cccc(N(C(=O)c2ccco2)C(C(=O)NC2CCCC2)c2ccc(N(C)C)cc2)c1 (stereo not shown) | 14.2%
40 | COc1cccc(CNc2cc(C)ccn2)c1O | 9.35%
41 | Cc1cc(=O)[nH]c(SCCCOc2ccc3c(c2)CCC3)n1 | 3.45%
42 | CCOc1ccc(N2CC(C(=O)Nc3nnc(Cc4ccc(OC)c(OC)c4)s3)CC2=O)cc1 (stereo not shown) | 0.249%
43 | COc1ccc(CCN(Cc2nc(-c3ccccc3)no2)Cc2nc(-c3ccccc3)no2)cc1OC | -5.19%
44 | CC1CN(C(=S)Nc2ccc(Cl)cc2)CC(C)O1 (stereo not shown) | 16.9%

Row | Structure (SMILES) | hERG current change (%, negative = inhibition) at 1uM
45 | COc1cccc(CN(C)Cc2cc(=O)oc3cc(O)c(Cl)cc23)c1.O=C(O)C(=O)O | 11.4%
46 | COC(=O)c1ccc(COc2ccccc2/C=C(\C#N)C(=O)Nc2c(C)cc(C)cc2C)cc1 | 15%
47 | Cc1nc2scc(-c3ccco3)c2c(=O)n1/N=C/N(C)C | 5.8%
48 | Cc1cc(C)cc(NC(=S)NCc2ccc3c(c2)OCO3)c1 | 7.12%
49 | CN1C(c2ccc(F)cc2)=CS/C1=C(\C#N)c1nnc2n1-c1ccccc1SC2 | -6.05%
50 | Cc1cc(NC(=NC2CC2)c2ccccc2)n(-c2ccccc2)n1 | 9.3%
51 | COc1ccccc1CNC(=O)c1ccccc1C(=O)NC(CC(C)C)C(=O)NCc1ccccc1OC (stereo not shown) | 12.1%
52 | Cc1cccc(-c2c3c(=O)n(C)c(=O)n(C)c3cn2CCO)c1 | 3.7%
53 | Cc1ccc(NC(=O)CN(C)C(=O)Nc2ccc(C)cc2)cc1 | 14.7%
54 | CN(C)c1ccc(/C=N/n2c(C3CCCCC3)n[nH]c2=S)cc1 | 15.7%
55 | CC(=O)/C(CN1CCCCC1)=N\O.Cl | 12.6%
56 | CC(C)CN(CC(C)C)C(=O)Nc1ccccc1F | 5.73%
57 | COc1ccc(NC(=S)N(CCCN2CCCC2)Cc2cccs2)cc1 | -7.06%
58 | O=C(CCN1C(=O)/C(=C/c2ccccc2Cl)SC1=S)NC1C=CS(=O)(=O)C1 (stereo not shown) | 14%
59 | COc1ccccc1CCn1cnc2c3cc(C)ccc3n(C)c2c1=O | 10.5%
60 | CCCSc1nnc(-c2ccccc2NC(=O)CC)c(=O)[nH]1 | 4.33%
61 | O=C(CN1CCN(Cc2ccccc2)CC1)NNC(=O)c1ccccc1 | 9.08%
62 | COc1cccc(C(=O)NCCn2ccc3ccccc32)c1 | 18.3%
63 | CCOc1cc(/C=N/NC(=O)c2ccncc2)cc(Cl)c1OS(C)(=O)=O | 3.53%
64 | Cl.O=S(=O)(c1ccc2nc(COc3ccccc3)[nH]c2c1)N1CCOCC1 | 5.33%
65 | O=C(COC(=O)CC1CC2CCC1C2)Nc1cccc(S(=O)(=O)NC2=NCCCCC2)c1 (stereo not shown) | 3.77%
66 | C/C(=N\NC(=O)CNc1cccc2ccccc12)c1ccccc1 | 12.2%

Row | Structure (SMILES) | hERG current change (%, negative = inhibition) at 1uM
67 | Cn1cc(/C=N/n2cnc3scc(-c4ccccc4)c3c2=O)c2ccccc21 | 3.02%
68 | COc1ccc2c(C)nc(Nc3nc(C)cc(C)n3)nc2c1 | 7.06%
69 | CC1=CC(=C2C(=O)NC(=O)NC2=O)C=C(C(F)(F)F)N1C(C)C | -11.7%
70 | CCSc1ccccc1C(=O)Nc1cccc(OC)c1 | 5.26%
71 | Cc1ccc(C)c(-c2nnc(OCC(=O)Nc3cc(C)on3)c3ccccc23)c1 | 1.7%
72 | CCCOc1ccc(N2C(=O)CC(N3CCC(c4nncn4CC)CC3)C2=O)cc1 (stereo not shown) | 5.38%
73 | Cc1sc2ncnc(N3CCC(C(=O)Nc4ccc(Br)cc4Br)CC3)c2c1C | 7.67%
74 | CCc1nnc(NC(=O)CSc2nnc3c4ccccc4n(C)c3n2)s1 | 15.5%
75 | Cc1ccc(S(=O)(=O)n2c([N+](=O)[O-])cnc2C)c(C)c1C | 28.4%
76 | CNC(=S)NNC(=O)COc1ccc(C)c(C)c1 | 4.61%
77 | COc1ccccc1N1CCN(C(=O)CCCNC(=O)Cn2cnc3sc(C)c(C)c3c2=O)CC1 | 12.1%
78 | COc1cc([N+](=O)[O-])ccc1NC(=O)CCCOc1cccc(C)c1C | 1.26%
79 | Cc1cccc(-c2noc(CCC(=O)NCc3ccco3)n2)c1 | 0.384%
80 | C/C(=N\NC(=O)c1c(Cl)c(C)nn1C)c1cccc(NC(=O)COc2ccccc2)c1 | 11%
81 | O=C(CC1SC(N2CCOCC2)=NC1=O)Nc1ccccc1Cl (stereo not shown) | 18.5%
82 | COc1cc(C(C)=O)ccc1COc1ccc(C(=O)OC(C)C(=O)NC(N)=O)cc1OC (stereo not shown) | 4.72%
83 | [O-]/[N+](=C/c1ccccc1)c1ccccc1 | 9.93%
84 | CN(Cc1c(C(=O)N/N=C/c2ccc(O)cc2)nnn1-c1nonc1N)c1ccccc1 | 15.5%
85 | O=C(O)c1ccc(CSc2nnc(-c3ccccc3Br)o2)cc1 | 13.5%
86 | COc1cccc(C(=S)N2CCCC2)c1OC | 10.8%
87 | Cc1cc(C)n(CCN(C)C(=O)CCc2nnc(CCC3CCCCC3)o2)n1 | 3.53%
88 | CC1(C)Oc2ccc(C(=O)NC3CCCC3)cc2N(CC(=O)NC2CCCCC2)C1=O | 12%
